Assay results: patent US20230227565A1, “Method for Treating CD127-Positive Cancers by Administering an Anti-CD127 Agent” (OSE IMMUNOTHERAPEUTICS, priority 2021, published 2023)
“Also recorded” adds a separate entry of the source.

Legend:
[1] = test system: CD127 signaling (p-STAT5) in DND41 cells; assay: P-STAT5 probing by flow cytometry, DND41; format: cell-based, human; conditions: FIG. 22B; IL-7R mutated, constitutively activated T-ALL cell line
Method: (§1) P-STAT5 probing by flow cytometry: Cells were starved overnight in TexMacs medium (Miltenyi, Bergisch Gladbach, Germany; reference 130-097-196). After 30 min incubation in TexMacs medium (37° C.) supplemented with anti-CD127 agents, cells were stimulated with 5 ng/mL rhIL-7 (AbDSerotec, Raleigh, North Carolina, USA; reference PHP046) at 37° C. The reaction was then stopped by incubation on ice for 5 min and cells were fixed and permeabilized using the Phospho-Flow protocol from BD Biosciences, Franklin Lakes, N.J., USA (Cytofix/Cytoperm buffer and Perm/ Wash buffer (BD biosciences reference 554714) Perm buffer III (BD biosciences reference 558050)). Phospho-STAT5 detection was measured using the AlexaFluor647 anti-human pStat5 antibody (BD biosciences reference 612599) following the manufacturer's instructions.

[2] = test system: DND41 cells; assay: In vitro phagocytosis assay, DND41; format: cell-based; conditions: FIG. 22A; human macrophages
[3] = test system: T-ALL patient-derived xenograft; assay: Overt leukemia PDX cohort, 15 T-ALL specimens (FIG. 2D); format: in vivo, mice; conditions: control 44 days, p=0.04
Method: In overt leukemia experiments, mice were injected with 1 million BCP-ALL patient derived xenograft cells (n=10) of E2A-PBX1 positive patients (n=2 patients).

[4] = test system: T-cell ALL cell lines (HPB-ALL and DND41 IL7R mut.); assay: In vitro phagocytosis assay, T-ALL cell lines (FIG. 7); format: cell-based, human; conditions: increasing doses
[5] = test system: CD127 signaling (p-STAT5) in NALM6 cells; assay: P-STAT5 probing by flow cytometry, NALM6; format: cell-based, human; conditions: FIG. 20B; IL-7 unresponsive B-ALL cell line
Method: as §1

[6] = test system: HPB-ALL CDX; assay: HPB-ALL cell line derived xenograft (CDX) model; format: in vivo, mice; conditions: FIG. 18D
[7] = test system: CD127 signaling (p-STAT5) in HPB-ALL cells; assay: P-STAT5 probing by flow cytometry, HPB-ALL; format: cell-based, human; conditions: IL-7 5 ng/mL; IL-7 responsive T-ALL cell line
Method: as §1

[8] = test system: B-ALL cell lines (697 t(1;19), NALM6 (DUX4) and REH t(12;21)); assay: In vitro phagocytosis assay, B-ALL cell lines (FIG. 8); format: cell-based, human; conditions: increasing doses
[9] = test system: B- and T-ALL patient derived xenografts; assay: Peripheral blast reduction in 23 ALL PDX mice (FIG. 5); format: in vivo; conditions: 23 different ALL PDX
Method: (§2) Assessment of in vivo efficacy of treatment through peripheral blast reduction measurement. […] Blast reduction was calculated by subtracting the percentage of leukemic blasts in treated mice from the percentage of leukemic blasts detected in corresponding control animals.

[10] = test system: B-ALL and T-ALL patient derived xenografts; assay: Overt leukemia ALL PDX, combination with standard of care
[11] = test system: T-ALL patient-derived xenograft; assay: Leukemia development in four T-ALL patient-derived xenografted mice (FIG. 1C); format: in vivo; conditions: four T-ALL PDX; control mice 20 to 90% engraftment
Method: as §2

[12] = test system: human MSTO-211H biphasic malignant mesothelioma cells; assay: In vitro phagocytosis assay, mesothelioma cells; format: cell-based; conditions: FIG. 23B; increasing doses
[13] = target: T1, hCD16a/FcγRIIIa (Homo sapiens, UniProt P08637); assay: ELISA binding to FcγR, CD16a; conditions: FIG. 17A
T1 construct: purchased R&D Systems 4325-FC-050
T1 sequence (P08637 17-254): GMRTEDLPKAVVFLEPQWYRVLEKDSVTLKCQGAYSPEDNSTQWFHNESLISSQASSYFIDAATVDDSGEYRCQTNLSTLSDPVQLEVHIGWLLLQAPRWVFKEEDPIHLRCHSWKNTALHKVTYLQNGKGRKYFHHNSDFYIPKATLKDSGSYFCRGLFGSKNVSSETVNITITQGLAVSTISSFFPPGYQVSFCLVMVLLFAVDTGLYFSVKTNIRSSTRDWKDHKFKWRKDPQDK
Method: ELISA binding to FcγR. For binding ELISA assay, recombinant hCD64/FcγRI (R&Dsystems, Minneapolis, Minn., USA; reference 1257-FC-050) or hCD32a/FcγRIIa (R&Dsystems, Minneapolis, Minn., USA; reference 1330-CD-050) or hCD16a/FcγRIIIa (R&Dsystems, Minneapolis, Minn., USA; reference 4325-FC-050) was immobilized on plastic at 2 μg/ml in borate buffer (pH9) and purified antibody were added to measure binding.

[14] = test system: T-ALL patient leukemic blasts; assay: In vitro phagocytosis assay, T-ALL patient leukemic blasts; format: cell-based, human; conditions: FIG. 19D
[15] = test system: CD127-positive tumor cells; assay: In vitro phagocytosis (ADCP) assay, ALL cell lines expressing CD127; format: cell-based; conditions: human macrophages
[16] = test system: CD127 signaling (p-STAT5) in T-ALL patient leukemic blasts; assay: P-STAT5 probing by flow cytometry, T-ALL patient leukemic blasts; format: cell-based, human; conditions: FIG. 19C; IL-7 stimulation
Method: as §1

B1: N13B2-hVL6: antagonist IgG4 anti-CD127 monoclonal antibody, ADCP+/ADCC-; heavy chain SEQ ID No. 27, light chain SEQ ID No. 28 (antibody)
heavy: QVQLVESGGGLVKPGGSLRLSCAVSGFTLSDYYMAWIRQAPGKGLEWVSTISASGLRTYYPDSVKGRFTISRDNAKNSLYLQMNSLRAEDTAVYYCARPLSAHYGFNYFDYWGQGTLVTVSSASTKGPSVFPLAPCSRSTSESTAALGCLVKDYFPEPVTVSWNSGALTSGVHTFPAVLQSSGLYSLSSVVTVPSSSLGTKTYTCNVDHKPSNTKVDKRV[human IgG4 Fc with S228P L445P (EU numbers) not listed]
light: DIQMTQSPSSLSASVGDRVTITCRTSEDIYQGLAWYQQKPGKAPKLLLYSANTLHIGVPSRFSGSGSGTDYTLTISSLQPEDFATYYCQQYYDYPLAFGGGTKVEIKRTVAAPSVFIFPPSDEQLKSGTASVVCLLNNFYPREAKVQWKVDNALQSGNSQESVTEQDSKDSTYSLSSTLTLSKADYEKHKVYACEVTHQGLSSPVTKSFNRGEC
Q: B1 was tested. Which “inhibition of CD127 signaling (p-STAT5)” value [1] did it give?
A: Its value is “cannot inhibit CD127 signaling”.

Q: And the “induction of ADCP” value [2]?
A: The value was “induces ADCP”.

Q: What about the median overall survival [3] of the same molecule?
A: Its median overall survival is 71 days.

Q: What about the “phagocytosis of T-ALL tumor cells by macrophages” value [4] of the same molecule?
A: The value was “very efficient”.

Q: And the “inhibition of CD127 signaling (p-STAT5)” value [5]?
A: The value was “cannot inhibit CD127 signaling”.

Q: And the “antileukemic activity (overall survival)” value [6]?
A: The value was “antileukemic activity”.

Q: What about the “inhibition of CD127 signaling (p-STAT5)” value [7] of the same molecule?
A: The value was “efficiently inhibit CD127 signaling”.

Q: And the “phagocytosis of B-ALL tumor cells by macrophages” value [8]?
A: The value was “the most efficient”.

Q: And the “leukemic blast reduction compared to control treatment” value [9]?
A: Its value is “leukemic blast reduction”.

Q: And the “survival, combination with standard of care” value ([10]; FIG. 14C, cohort of 8 ALL specimens, SOC Dexamethasone+Oncaspar+Vincristine)?
A: The value was “synergistic efficacy”.

Q: What about the “survival at 260 days, single treatment” value ([10]; FIG. 15B, 9 PDX) of the same molecule?
A: Its value is “did not survive”.

Q: What about the “mice alive 260 days after injection, combination with standard of care” value ([10]; FIG. 15B, 9 PDX, (5/9)) of the same molecule?
A: Its value is “more than 50%”.

Q: And the “leukemic blasts in the bone marrow or the spleen, combination with standard of care” value ([10]; FIG. 15C, mice that survived more than 260 days)?
A: Its value is “not detected”.

Q: What about the “leukemic blasts in the peripheral blood” value [11] of the same molecule?
A: The value was “absent”.

Q: What about the “phagocytosis of CD127+ human mesothelioma cells” value [12] of the same molecule?
A: Its value is “enhances the phagocytosis”.

Q: What about the “binding to CD16a” value [13] of the same molecule?
A: Its value is “does not bind efficiently”.

Q: What about the “induction of ADCP” value [14] of the same molecule?
A: Its value is “induce ADCP”.

Q: And the “phagocytosis (ADCP) of CD127-positive tumor cells by macrophages” value [15]?
A: Its value is “enhanced; also recorded: the strongest ADCP capability; also recorded: superior ADCP capacities”.

Q: What about the “inhibition of CD127 signaling (p-STAT5)” value [16] of the same molecule?
A: The value was “efficiently inhibit CD127 signaling”.
